The chains are these.
B1: tRNA (parent)
chain: CUCUCGGUAGCCAAGUUGGUUUAAGGCGCAAGACUUUAAUUUAUCACUACGAAAUCUUGAGAUCGGGCGUUCGACUCGCCCCCGGGAGAUUUUUUCCUCGAGCAA

For 84 variants, nonsense suppression results are on record in the RNAGym collection of RNA variant scans (doi:10.1101/gad.245936.114).

Variants at the background level are over-represented here.

Variants of B1 are the subject of the series. In words: nonsense suppression (GFP-seq) (ratio to wild type); higher = more function; SUP4oc tRNA, yeast GFP reporter sort-seq. The method, boiled down:
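Yeast carrying genome-integrated SUP4oc tRNA variants from a library with ~3% random mutations were grown in raffinose/galactose medium with 80 mg/L adenine. Each strain also carried a galactose-driven GFP ochre reporter and RFP. Cells were sorted into GFP/RFP bins, and each bin was Illumina-sequenced (phred ≥30). Nonsense suppression (GFPSEQ) is the bin median GFP/RFP, weighted by each variant's estimated cell share per bin, relative to wild-type SUP4oc; variants needed ≥100 reads and ≥30 cells.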
Consider C1U G59C, for which the nonsense suppression was not above 0.026.
In the case of U58A A74G it was not above 0.026; in that of G10C U20G C34A C72A C83U, not above 0.026.
In the case of C56A G73U it was not above 0.026.
In the case of C3U G18C C56A it was not above 0.026.
With G28C U58A G61U G84U, the nonsense suppression is not above 0.026.
As to U8G G18U U63A, the nonsense suppression is not above 0.026.
Regarding G7C G15U G84A, the nonsense suppression was not above 0.026.
Turning to A9G C72G U76G G88U, the nonsense suppression is not above 0.026.
Next, C1A G73C U76A: not above 0.026.
In the case of A14U A24U C34U G88C it was not above 0.026.
With G15U C56A G61C, the nonsense suppression is not above 0.026.
In the case of G28U A74G it was not above 0.026; in that of G65U G69A, not above 0.026.
Next, U76C G78C: 0.118; U4C G86A: 1.09; U16C U21A C77A: not above 0.026.
Next, U57G G88C: not above 0.026.
On to C3U C77G, for which the nonsense suppression was 0.0323.
In the case of A33G G59U C79A, the nonsense suppression was not above 0.026.
In the case of G32C C79U G88U it was not above 0.026; in that of C1G A9G U20C G59C U76C, not above 0.026.
In the case of A31C U35G C79A G85A it was not above 0.026; in that of U57A G78C, not above 0.026; in that of A30G U35G U63G A89C, not above 0.026.
As for A31U C64U U76C, the nonsense suppression is not above 0.026.
Take A14C C27U C77G: the nonsense suppression was not above 0.026.
Regarding C34U G65U, the nonsense suppression is not above 0.026.
Take C77G G88C: the nonsense suppression is not above 0.026.
In the case of A62C G69C G78A it was not above 0.026.
In the case of A14G A87U it was not above 0.026; in that of G7U G85U, not above 0.026; in that of U4G G25A U58G G66A A74G, not above 0.026.
As to C3A G6C G28U, the nonsense suppression was not above 0.026.
Next, C3U G6U G7A G25A: not above 0.026; A9C A62G G73A: not above 0.026; C3A U17A A23G U35G C77A: not above 0.026.
In the case of G15A G78U it was not above 0.026.
In the case of C29U C68A G73U it was not above 0.026.
U21C U57C C80U G85A: the nonsense suppression was not above 0.026.
Next, A13C C64U: 0.0428; C82A G86U: not above 0.026.
On to U35G U70C G86A, for which the nonsense suppression was not above 0.026.
Next, A13U C56G A62G: not above 0.026; C34U C64U: not above 0.026; A14C G78U: not above 0.026.
Next, A14G A31C C68A: not above 0.026; A23U A54G: not above 0.026.
In the case of A9G C75U it was 1.17; in that of C64A G86C G88C, not above 0.026.
For the variant C5U U55A A62G G66C C77G, the nonsense suppression was not above 0.026.
With C27U G61U G73A, the nonsense suppression was not above 0.026.
Next, U17C C83U: 0.191.
As to C29A C83G, the nonsense suppression is not above 0.026.
Regarding C1G G84U, the nonsense suppression was not above 0.026.
For G18C G69A A74U G88A, the nonsense suppression was not above 0.026.
Next, U4A U76C A89U: not above 0.026; U22A C56A: not above 0.026; C1A G59U U63C: not above 0.026.
With A14G U22A C27A, the nonsense suppression is not above 0.026.
In the case of A13G G15U G67U it was not above 0.026.
For the variant A9G C29G A74U C75A A87C, the nonsense suppression was not above 0.026.
With A9G A60G U76A, the nonsense suppression was not above 0.026.
Next, U21A U55G U57C G86A: not above 0.026; G18A A23G G25A A33G A62G G67C: not above 0.026.
Next, C34G G61C: not above 0.026.
Next, A13G G65A: not above 0.026.
For G15A A33G, the nonsense suppression amounted to 0.0395.
Next, C29A U58G C82A: not above 0.026.
In the case of C34U G67A C72G it was not above 0.026; in that of U58A, not above 0.026; in that of U55C G78A C82A, not above 0.026.
In the case of C27A A74U C79U it was not above 0.026; in that of C3G C12U U22A C27U C29G U63C C75A, not above 0.026; in that of U2A U20A A31U, not above 0.026.
Regarding G6C C27A C83A, the nonsense suppression is not above 0.026.
Next, C3A U8A A23C G69C G73A: not above 0.026; U8A G85C: not above 0.026; U20G G25C G85A: not above 0.026.
In the case of A30C C34G G88U it was not above 0.026; in that of G59C G66U G85A, not above 0.026.
In the case of C3U U4A G10U A14G A54G it was not above 0.026; in that of U20G G73U, not above 0.026; in that of G10U U17A G19U A23C, not above 0.026.
